Assay results as given in the BET-seq Pho4 binding data (Le et al. 2018).
Some of the results follow. Values were computed here from the reads of four pooled replicates and scatter widely.

What follows are sequences tested against T1, Pho4 (S. cerevisiae) (UniProt P07270) (assay: relative binding free energy (BET-seq); higher = weaker binding). Settings: reference: library average.
T1 sequence: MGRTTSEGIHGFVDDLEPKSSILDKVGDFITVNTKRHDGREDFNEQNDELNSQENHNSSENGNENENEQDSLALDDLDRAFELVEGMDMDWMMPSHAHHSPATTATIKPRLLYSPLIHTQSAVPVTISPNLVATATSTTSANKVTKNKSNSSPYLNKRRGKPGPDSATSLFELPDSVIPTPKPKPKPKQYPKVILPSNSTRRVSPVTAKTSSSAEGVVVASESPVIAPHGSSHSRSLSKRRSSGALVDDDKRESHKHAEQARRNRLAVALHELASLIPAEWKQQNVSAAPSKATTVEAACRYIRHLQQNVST

Sequence | relative binding free energy [kcal/mol]
CAGTTCACGTGAGGAT | 0.42
GTTTGCACGTGTGTAA | 0.03
TGCGGCACGTGAATTG | 0.09
TGGGGCACGTGAATTG | 0.25
TGTCGCACGTGGGTTC | -0.12
TAGATCACGTGGGTAG | 0.09
AGGTTCACGTGGTAAA | 0.28
GGATGCACGTGATGAG | 0
TTTCCCACGTGGGTTG | -0.09
TAGTACACGTGCGATG | 0.08
ATCGTCACGTGTATCG | 0.33
CGTTTCACGTGGACGT | 0.42
TGTTGCACGTGGGACG | -0.18
GATTTCACGTGTTAGC | 0.36
TGGTGCACGTGAAAAT | 0.2
CAGGTCACGTGTAGTG | 0.22
ATGTTCACGTGTTGTA | 0.31
TTTTTCACGTGAGGGG | 0.45
GTGGTCACGTGGCGGA | 0.04
GTGTGCACGTGAATGC | 0.23
GTGAGCACGTGGGCTA | -0.14
AGGAGCACGTGTATGA | -0.07
GGCTACACGTGGGTTT | -0.08
AATTTCACGTGATAAG | 0.33
CGTGTCACGTGACGTT | 0.31
GCGTTCACGTGGGGGA | 0.21

Sequence | relative binding free energy [kcal/mol]
GCAGGCACGTGGATGG | -0.03
ATTGTCACGTGAGAGG | 0.12
CTTAGCACGTGCGGTG | -0.17
CGGATCACGTGATAGG | 0.27
TGTGTCACGTGAATCT | 0.16
TGATTCACGTGGGTTC | 0.27
TATTTCACGTGATGGA | 0.41
GTATTCACGTGGCGAT | 0.23
CTGAGCACGTGGGTCT | -0.15
TGATACACGTGGTGAT | 0.01
GTCAGCACGTGATGGT | 0.15
GATCGCACGTGGGACG | 0.13
GTGGCCACGTGTCGGG | 0
GCTGGCACGTGATGAT | 0.2
GGGGACACGTGGTGCT | -0.06
TGGGTCACGTGCGGAA | -0.02
TCGTTCACGTGGATTT | 0.22
GCTAACACGTGTAGGT | 0.17
AGGGGCACGTGGTGCT | -0.23
AGTGACACGTGGAGCG | -0.13
TAGGTCACGTGTCGCT | 0.11
GGTCTCACGTGGGTGT | 0.11
AGTCACACGTGGGAGG | -0.05
TTATGCACGTGAGATC | 0.18
GAGGACACGTGAATTG | 0.37
TTTTACACGTGTTGGT | 0.09

Sequence | relative binding free energy [kcal/mol]
TGTTTCACGTGGTGTT | 0.22
TAGCGCACGTGTGGGT | 0.03
TTTATCACGTGTAGAG | 0.04
GCAGTCACGTGTTTGA | 0.22
GGAGTCACGTGGATGG | 0.17
TAACTCACGTGTGGAT | 0.23
TGATTCACGTGAGGGC | 0.5
TGTACCACGTGGTAGG | -0.16
TTCGGCACGTGGGGCT | -0.2
AAAGTCACGTGGGTCT | -0.09
TGAGTCACGTGGTCGA | -0.03
GGGGCCACGTGGCATG | -0.12
GTTGACACGTGCGCGT | -0.07
CGGTTCACGTGTTGGG | 0.25
ATATGCACGTGTTAGG | -0.08
GAAGTCACGTGTTAAT | 0.21
TAATGCACGTGGAATT | -0.02
CTGGGCACGTGGGTAT | -0.16
TGGTTCACGTGCTGAG | 0.23
TACGTCACGTGGATTT | 0.02
ATTGTCACGTGTTGTT | 0.1
GCTTACACGTGGTGTG | 0.05
ATGGGCACGTGAAGGG | 0.14
TTATACACGTGCTTTG | -0.1
GGGCTCACGTGGATTT | 0.4
AATTGCACGTGTGGGG | -0.01

Sequence | relative binding free energy [kcal/mol]
CCTGACACGTGGTGGT | -0.06
GTTGGCACGTGGGCTA | -0.16
GAATTCACGTGTGTGG | 0.22
TTTGACACGTGGCGTC | -0.16
TTTGGCACGTGATAAT | 0.09
ATATTCACGTGTGCGT | 0.11
GGTCGCACGTGTTGTG | 0.06
GAGAGCACGTGTTTCG | 0.03
TTTGGCACGTGCTGTT | -0.13
TAGTGCACGTGGTGTG | -0.09
ATGGTCACGTGGTGTT | -0.03
AGTGTCACGTGTTGGC | 0.05
TTGTTCACGTGAACAG | 0.32
TAGTGCACGTGGTGAT | -0.11
AAGATCACGTGTGGGA | 0.15
GTTGACACGTGTTTGA | 0.02
AGTCTCACGTGGTTAT | 0.23
AGATTCACGTGTGAGT | 0.3
TTTATCACGTGGAGAT | 0.11
TTAATCACGTGGCGGT | 0
TAGTACACGTGGTTGC | 0
TTACTCACGTGATATT | 0.31
TCTGTCACGTGAGTGC | 0.2
TCTTGCACGTGGATTA | -0.02
ATTTTCACGTGAGTAG | 0.38
TGTGGCACGTGGGGGG | -0.16

Sequence | relative binding free energy [kcal/mol]
GTTTTCACGTGCATTG | 0.37
TTGGTCACGTGCGATG | 0.09
TATTTCACGTGTAGTA | 0.24
AGTGACACGTGTTTAG | -0.02
GAGTTCACGTGGTATA | 0.32
TGTAGCACGTGTTCTT | -0.11
TGAGTCACGTGGAGGA | 0.03
AAGGTCACGTGGTGCT | 0.02
CAAGGCACGTGGGGTG | -0.35
AGTCTCACGTGTGTGT | 0.19
GCAGGCACGTGTTGTT | 0.03
GGTTACACGTGGTGTC | 0.13
CGGGACACGTGAAAGG | 0.35
GACAACACGTGTGGGT | 0.21
TCGGACACGTGGATTG | 0.12
TGTTGCACGTGCGCTG | -0.23
CTATCCACGTGGTGTT | 0.02
GGGAGCACGTGTTTTC | 0
TCTTACACGTGGATGT | 0.16
GGTCTCACGTGCGGGC | 0.29
CGGGACACGTGTGGGT | 0.14
TTGTACACGTGAGATA | 0.2
GGAAGCACGTGTGTGG | -0.15
ATAGGCACGTGGCGTG | -0.32
GTCGACACGTGTTTTT | 0.1
TTCGGCACGTGGATGA | -0.03

Sequence | relative binding free energy [kcal/mol]
AATGTCACGTGGAGGT | 0.03
ATAGACACGTGAAAGG | 0.3
AGTGGCACGTGTGAGT | -0.04
GCGGGCACGTGAATGG | 0.52
GGGCGCACGTGTATTG | -0.15
CTTGTCACGTGGGTGA | 0
CGAGTCACGTGATGTA | 0.18
GGATACACGTGGTGGT | 0.07
CTCGGCACGTGTTGTT | 0.05
TAGTACACGTGGGTTA | -0.09
TGGTACACGTGCTATT | -0.06
GATTGCACGTGTCGTA | 0.21
CAGTGCACGTGGGTAG | -0.25
GTTGACACGTGTGTCA | 0.04
TCGTTCACGTGTTATG | 0.14
TAAGGCACGTGCGCGG | -0.25
TTGATCACGTGTAAGT | 0.13
GTGTCCACGTGGGTGT | 0.01
GGTCTCACGTGAGTAT | 0.52
ATGCACACGTGGAAGT | 0.27
AAGTGCACGTGGAGCT | -0.02
TGATGCACGTGTGCAA | 0.07
TTGTTCACGTGGAGAG | 0.29
AGGGCCACGTGTGCGT | -0.08
AGTAGCACGTGGGTCT | -0.38
TATAACACGTGGTCTG | -0.12

Sequence | relative binding free energy [kcal/mol]
GCGTGCACGTGGAGTG | -0.05
TCTGGCACGTGCGTAG | -0.1
AGGATCACGTGGATAG | 0.21
TGTAACACGTGGTAGG | -0.08
GGAAGCACGTGAGGAT | 0.19
TGTGTCACGTGGTTCG | 0.1
TGTGTCACGTGTTTTG | 0.07
GTGCTCACGTGTTGTA | 0.25
TGGACCACGTGGAGGG | 0.01
TTCTTCACGTGGAAGT | 0.29
TGCGGCACGTGTTGTG | -0.1
ATGAACACGTGTTTAG | -0.06
ACGCTCACGTGGTGTT | 0.28
ATTGGCACGTGCGTTG | -0.28
AGGTACACGTGGTATG | 0
GAGTGCACGTGTCGTG | 0.03
CTGATCACGTGGCGGT | 0.11
AAGGACACGTGGGGCC | 0.02
TTTTCCACGTGTAGAT | 0.24
CATGCCACGTGGTGTA | -0.14
TGTTTCACGTGCAAGG | 0.29
TATGCCACGTGGGCGG | -0.33
GGTATCACGTGGTGGA | 0.13
GATAGCACGTGTGGGC | 0.09
GTATACACGTGGTATA | -0.16
CTTGGCACGTGGGCAT | -0.23

Sequence | relative binding free energy [kcal/mol]
ACGGACACGTGGGGGT | -0.11
TTTTGCACGTGATTCA | 0.03
TTTGCCACGTGGGGGG | -0.11
AAAGACACGTGATTTG | 0.23
TTTTTCACGTGTCGAT | 0.25
TGATGCACGTGGAGCG | -0.02
AAGGACACGTGGAATT | 0.21
ATAGGCACGTGGACAT | -0.01
GAGGGCACGTGAAGTA | 0.22
GTCTACACGTGGTATG | 0.12
TTTTTCACGTGAAGAT | 0.35
TGAATCACGTGGAGTG | 0.1
TTTGACACGTGTCGGC | 0.19
ATGGACACGTGGACGG | -0.07
GATTTCACGTGGTGCG | 0.4
AGGATCACGTGAAGTT | 0.41
AGGGTCACGTGTTAGT | 0.1
GGTCTCACGTGGATTT | 0.23
ACTCGCACGTGTTGGT | 0.03
GGCGACACGTGGGTCG | -0.09
AATGTCACGTGCTATT | 0.13
AGTGCCACGTGGCTGT | -0.12
GTTTTCACGTGAATAT | 0.21
GTAAGCACGTGGTTTT | -0.08
CAGGTCACGTGGTCAG | 0.04
AGTCACACGTGGGGGC | -0.04

Sequence | relative binding free energy [kcal/mol]
TGACGCACGTGGCGTG | -0.3
TGTGGCACGTGGGAAG | -0.14
TGAGGCACGTGGTCTG | -0.23
CTTTTCACGTGTATTT | 0.22
GTATGCACGTGTCTGA | 0.05
GGTATCACGTGTGGTT | 0.21
TGTATCACGTGTGTGG | 0.18
TTAGGCACGTGAAAAT | 0.31
ATTAGCACGTGGATGT | 0.03
TTGGTCACGTGAGAAC | 0.46
TGGGTCACGTGGCTGG | 0.07
AGTTTCACGTGGTTTC | 0.17
TGGTCCACGTGGTTCT | -0.05
TTTTTCACGTGAGGTA | 0.35
GTGTTCACGTGTTAGG | 0.35
AGGGTCACGTGATTTA | 0.35
TTGGTCACGTGATACT | 0.24
AGTCACACGTGCGTGT | 0
AAAATCACGTGGTGGA | 0.03
GAGCGCACGTGGGGTT | -0.27
CGGCCCACGTGGGGGC | -0.15
GTGAGCACGTGTCTGG | -0.19
